Some of the results follow. These are noisy estimates, calculated here from bound and input reads.
Biological target: T1, Pho4 (S. cerevisiae) (UniProt P07270)
T1 sequence: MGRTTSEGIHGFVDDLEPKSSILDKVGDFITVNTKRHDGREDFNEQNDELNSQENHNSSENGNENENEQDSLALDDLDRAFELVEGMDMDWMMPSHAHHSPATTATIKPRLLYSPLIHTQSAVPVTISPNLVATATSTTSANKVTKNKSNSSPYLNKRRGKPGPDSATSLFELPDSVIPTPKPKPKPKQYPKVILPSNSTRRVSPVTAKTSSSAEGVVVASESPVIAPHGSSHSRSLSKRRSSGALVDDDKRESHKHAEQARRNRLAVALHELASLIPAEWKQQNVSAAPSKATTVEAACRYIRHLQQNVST
Assay: relative binding free energy (BET-seq); higher = weaker binding
Details: reference: library average

Sequence	relative binding free energy [kcal/mol]
CATTCCACGTGGGGTG	-0.2
CAGTGCACGTGTCTGG	-0.05
AGGAGCACGTGGAGGG	-0.18
TCCGTCACGTGTTAGT	0.08
TACTTCACGTGGCTTT	0.26
GGCTACACGTGAGGTG	0.35
AGTCTCACGTGGATTT	0.33
CGTTTCACGTGAATTG	0.31
TTGAGCACGTGATTGA	0.06
AGTACCACGTGTGTTA	-0.07
AGGTTCACGTGATGCA	0.23
TGTGTCACGTGTAAAA	0.27
TGGAACACGTGTGAGT	0.03
GGTGACACGTGTCGGT	0.17
TTGCGCACGTGAGGCT	0.08
GGGTTCACGTGGACTA	0.23
ATATGCACGTGTTAAG	-0.02
GCGTGCACGTGGCGGT	-0.08
TTATACACGTGGGTAC	-0.06
CATTTCACGTGGAGGT	0.28
GCGGGCACGTGGTTTG	-0.2
TGTGACACGTGGGGTG	-0.21
GGGGTCACGTGTATCA	0.06
ATGGTCACGTGGGGGA	0.03
TGTAGCACGTGGCATG	-0.21

Sequence	relative binding free energy [kcal/mol]
GGGGTCACGTGGTTGG	0.18
GGGATCACGTGATGCT	0.28
TGTGCCACGTGATTGT	0
AGTATCACGTGTGCTT	0.13
AAAAGCACGTGTGTGT	-0.07
TGAAGCACGTGTCAGG	-0.08
TGGATCACGTGGAGTT	0.15
CTGTACACGTGAGGAT	0.41
GGGGGCACGTGGACTC	0.03
ATAATCACGTGAATTA	0.45
GGGTACACGTGCTTTT	0.12
GCATTCACGTGAAGGG	0.43
GTTGCCACGTGGGTAA	-0.21
GGGGACACGTGCTAGT	-0.12
GTGTTCACGTGCCGGG	0.27
TTTGACACGTGGTATT	-0.07
TTCGTCACGTGGATGT	0.14
AGAGGCACGTGGCGGC	-0.28
GTATGCACGTGTGGGT	0.05
TTGCTCACGTGGTTGT	0.07
TGGTACACGTGCGGTA	-0.05
TGTGACACGTGGTAGC	-0.1
AGCTCCACGTGGTGGT	0.06
GTGAACACGTGAGTGG	0.33
GTAGGCACGTGGTACT	-0.2

Sequence	relative binding free energy [kcal/mol]
TAGTCCACGTGTTGGG	0.08
TGGCGCACGTGAGTAT	-0.05
TTCGTCACGTGGAAGT	0.11
TTTCGCACGTGTTCGT	-0.17
GGTTTCACGTGTGAGC	0.49
CTGGGCACGTGGTGAC	-0.16
GGGCGCACGTGTTTTA	-0.09
TTGTCCACGTGTGTAG	-0.01
TGCTGCACGTGACGTG	0.11
TAGTTCACGTGTACGT	0.16
TGTGTCACGTGTTAGG	0.06
GTTGGCACGTGGGATC	0.02
GTTATCACGTGGTTCA	0.13
GTTGTCACGTGTGCCG	0.12
TTCTACACGTGTATGG	0.11
TGCGGCACGTGGCGGA	-0.25
GCTTTCACGTGATTGG	0.3
CTGTTCACGTGTTGGC	0.19
TGGGCCACGTGCTGGG	-0.18
CTGGGCACGTGGGAAA	-0.09
GGGGTCACGTGAGGCA	0.37
TATGGCACGTGCAAGT	-0.11
AGATGCACGTGAATGG	0.22
TCGGTCACGTGGTGAG	0.16
TCCGTCACGTGGGTTG	0.04

Sequence	relative binding free energy [kcal/mol]
TGGTACACGTGCGTCG	-0.09
GTATGCACGTGGCGTA	-0.13
AAGGGCACGTGGGGAA	-0.1
TTTGACACGTGGTGAA	-0.05
GGGGGCACGTGCGGAT	-0.2
ACTTTCACGTGGTAGG	0.33
TATAGCACGTGAGTTA	0.11
CGTATCACGTGTTAGA	0.13
CGGTTCACGTGATTAG	0.27
TAGGACACGTGAGTTA	0.25
TTTGGCACGTGCAGTT	-0.08
AGTTGCACGTGGTGCT	-0.06
TGTTCCACGTGAGGGC	0.22
AGTTTCACGTGAGTTG	0.39
TTAAGCACGTGGATAG	-0.18
CGGGTCACGTGTGACT	0.23
TAGAACACGTGTGTAG	-0.02
TGGTTCACGTGTAAAG	0.31
CATTTCACGTGGGTGC	0.18
TGTAGCACGTGATTGT	0.02
TGGTGCACGTGTTAAT	0.07
TGGTGCACGTGTGTAA	0.05
TTACACACGTGAGGTT	0.18
AGCAGCACGTGAGTGG	0.19
AGTGTCACGTGTGGGA	0.02

Sequence	relative binding free energy [kcal/mol]
TACGGCACGTGAGTTT	0.14
ATAATCACGTGTTTTC	0.21
TTGTTCACGTGGCGGT	0.12
TCTAGCACGTGGTTAA	-0.05
GGGGTCACGTGCTGTG	0.14
ATGTGCACGTGATCGG	0.05
ATGTTCACGTGTAAGT	0.17
TGTGGCACGTGTATGA	-0.08
GTGCGCACGTGGATGG	-0.07
CGCGTCACGTGGTTGT	0.09
GTAATCACGTGCTGGG	0.01
TAAGGCACGTGTGATA	-0.01
TTGGACACGTGGACGT	0.11
GTGTGCACGTGGAATA	0.01
TTGGTCACGTGCTTTT	0.11
TGTAACACGTGCATGG	-0.06
CGAATCACGTGTTGGT	0.07
TTATACACGTGTGATA	0.21
AGAGTCACGTGGAGCG	0.25
TAGATCACGTGTGGTG	0.24
GGAGGCACGTGAGGGT	0.13
TAGAGCACGTGGCTTT	-0.06
GCCTGCACGTGGGGGG	-0.12
TAGAACACGTGTTATG	0.02
AATCTCACGTGTTATG	0.15

Sequence	relative binding free energy [kcal/mol]
TGGGCCACGTGGATGG	-0.04
ATAGACACGTGGTGAG	-0.05
GTGGGCACGTGCAGGC	-0.21
GTTTTCACGTGTGGAG	0.42
AGCTCCACGTGGGTTG	-0.05
AATGTCACGTGTAAGT	0.14
GATTGCACGTGGTACG	-0.03
CATTTCACGTGGGGTT	0.11
AATTACACGTGGCGGT	0.1
GGTTACACGTGTGTGC	0.12
AATGACACGTGTTATG	0.02
CTGGGCACGTGGTTAA	-0.09
TTGCTCACGTGGGGTC	-0.03
TGAGGCACGTGTTCTG	-0.09
GTCGGCACGTGGTTTA	-0.17
ATCATCACGTGGGCGG	0.13
ATTTTCACGTGGGACA	0.2
GGCGACACGTGGTTGG	0.12
CATGTCACGTGTCTTG	0.17
TTGAACACGTGAGTGC	0.29
GGGGACACGTGAATTG	0.28
